Measurements reported in PubChem BioAssay AID2676 (National Center for Advancing Translational Sciences (NCATS), 2010).
About 1,100 (0.3%) of roughly 370,000 compounds were called active. Roughly 1% stayed inconclusive and do not appear here. The call rests on the fitted dose curve; in most records, active means well fitted activation curve with a large enough effect; inconclusive means small, poorly fitted or top-dose-only effect; inactive means flat fitted curve, though single readings scatter. Some structures have more than one record in an assay (separate samples or runs), and their calls can disagree. For part of its entries the source gives two or more results. Only these are listed. There may be further records. The values listed for one entry are repeated measurements across runs, samples, wells, individuals or studies. A tag in brackets gives the origin of a value. A, B and so on number the origins entry by entry.

target: Relaxin receptor 1 (Homo sapiens) (UniProt Q9HBX9); experiment: qHTS Assay for Agonists of the Relaxin Receptor RXFP1; settings: HEK293T-RXFP1 cAMP TR-FRET, 30 min; series mostly up to 57.5 µM; further: nearly all actives have a fitted effect of over 60% in size
Chain of UniProt Q9HBX9 (Q9HBX9 whole entry, looked up): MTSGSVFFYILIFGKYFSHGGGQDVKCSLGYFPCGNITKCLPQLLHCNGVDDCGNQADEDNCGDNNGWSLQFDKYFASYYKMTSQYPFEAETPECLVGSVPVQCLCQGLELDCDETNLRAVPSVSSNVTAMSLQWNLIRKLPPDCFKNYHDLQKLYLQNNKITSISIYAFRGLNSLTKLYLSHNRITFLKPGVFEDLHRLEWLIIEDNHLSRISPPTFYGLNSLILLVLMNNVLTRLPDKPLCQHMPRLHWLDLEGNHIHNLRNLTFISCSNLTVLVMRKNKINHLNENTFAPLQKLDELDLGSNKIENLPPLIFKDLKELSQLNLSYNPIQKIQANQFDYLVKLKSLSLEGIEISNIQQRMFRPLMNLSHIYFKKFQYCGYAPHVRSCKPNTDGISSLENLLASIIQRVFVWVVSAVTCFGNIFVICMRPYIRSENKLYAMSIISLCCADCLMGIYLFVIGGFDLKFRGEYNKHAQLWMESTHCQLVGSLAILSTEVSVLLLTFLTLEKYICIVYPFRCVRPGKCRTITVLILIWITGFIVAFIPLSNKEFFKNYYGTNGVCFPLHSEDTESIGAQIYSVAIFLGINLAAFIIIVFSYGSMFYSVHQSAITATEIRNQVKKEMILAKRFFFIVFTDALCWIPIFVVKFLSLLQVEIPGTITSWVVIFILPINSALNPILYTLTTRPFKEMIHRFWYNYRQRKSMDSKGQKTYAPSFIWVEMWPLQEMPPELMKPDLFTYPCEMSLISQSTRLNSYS
From the text: NIH Chemical Genomics Center [NCGC] NIH Molecular Libraries Probe Production Centers Network [MLPCN] MLPCN Grant: R03 MH085705-01A1 Assay Submitter (PI): Alexander Agoulnik NCGC Assay Overview: The relaxin hormone is involved in the variety of biological functions in normal tissues and diseases. The role of relaxin is well-established in female reproduction and parturition, mammary gland and endometrial development, maintenance of myometrial quiescence during pregnancy. Relaxin signaling through its G protein-coupled receptor (GPCR) RXFP1 results in ECM remodeling through regulation of collagen deposition, cell invasiveness, proliferation and overall tissue homeostasis. […] RXFP1 activation was assayed by changes in cAMP levels as detected with a time-resolved fluorescence energy transfer (TR-FRET) cAMP detection kit.
NCGC Assay Protocol Summary: This is a cell-based assay for cAMP second messenger response to screen for agonists of the RXFP1 receptor. […] The cells were lysed and the cAMP levels were measured with a TR-FRET cAMP kit. […] The EC50 values were determined from concentration-response data modeled with the standard Hill equation 1536-well assay protocol for the HEK293 RXFP1 cAMP assay: (1) Add 3 ul HEK293 RXFP1 cell culture. […] (6) Detect the assay plate in a ViewLux plate reader (PerkinElmer) with Ex=320 nm, Em1=615 nm and Em2=665 nm. […]
Potency means the concentration at half of the fitted maximal effect.

Row | Structure (SMILES) | Potency
1 | CN(Cc1ccco1)S(=O)(=O)c1nnc(NC(=O)c2ccccc2)s1 | active: 22.4 µM [sample A] and inactive [sample B]
